# In all, about 310,000 compounds went through this assay and about 14,000 (4.5%) showed an effect of 50% or more. Effects have a minus sign here. This is one part of the list.
# Target: human ether-à-go-go-related gene (hERG) potassium channel (human, UniProt Q12809)
# Test: primary screen, population patch clamp on CHO cells stably expressing hERG
# 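Note: peak tail current of the secondary pulse compared with the same well before compound.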
# Chain of human ether-à-go-go-related gene (hERG) potassium channel (Q12809 whole entry, looked up): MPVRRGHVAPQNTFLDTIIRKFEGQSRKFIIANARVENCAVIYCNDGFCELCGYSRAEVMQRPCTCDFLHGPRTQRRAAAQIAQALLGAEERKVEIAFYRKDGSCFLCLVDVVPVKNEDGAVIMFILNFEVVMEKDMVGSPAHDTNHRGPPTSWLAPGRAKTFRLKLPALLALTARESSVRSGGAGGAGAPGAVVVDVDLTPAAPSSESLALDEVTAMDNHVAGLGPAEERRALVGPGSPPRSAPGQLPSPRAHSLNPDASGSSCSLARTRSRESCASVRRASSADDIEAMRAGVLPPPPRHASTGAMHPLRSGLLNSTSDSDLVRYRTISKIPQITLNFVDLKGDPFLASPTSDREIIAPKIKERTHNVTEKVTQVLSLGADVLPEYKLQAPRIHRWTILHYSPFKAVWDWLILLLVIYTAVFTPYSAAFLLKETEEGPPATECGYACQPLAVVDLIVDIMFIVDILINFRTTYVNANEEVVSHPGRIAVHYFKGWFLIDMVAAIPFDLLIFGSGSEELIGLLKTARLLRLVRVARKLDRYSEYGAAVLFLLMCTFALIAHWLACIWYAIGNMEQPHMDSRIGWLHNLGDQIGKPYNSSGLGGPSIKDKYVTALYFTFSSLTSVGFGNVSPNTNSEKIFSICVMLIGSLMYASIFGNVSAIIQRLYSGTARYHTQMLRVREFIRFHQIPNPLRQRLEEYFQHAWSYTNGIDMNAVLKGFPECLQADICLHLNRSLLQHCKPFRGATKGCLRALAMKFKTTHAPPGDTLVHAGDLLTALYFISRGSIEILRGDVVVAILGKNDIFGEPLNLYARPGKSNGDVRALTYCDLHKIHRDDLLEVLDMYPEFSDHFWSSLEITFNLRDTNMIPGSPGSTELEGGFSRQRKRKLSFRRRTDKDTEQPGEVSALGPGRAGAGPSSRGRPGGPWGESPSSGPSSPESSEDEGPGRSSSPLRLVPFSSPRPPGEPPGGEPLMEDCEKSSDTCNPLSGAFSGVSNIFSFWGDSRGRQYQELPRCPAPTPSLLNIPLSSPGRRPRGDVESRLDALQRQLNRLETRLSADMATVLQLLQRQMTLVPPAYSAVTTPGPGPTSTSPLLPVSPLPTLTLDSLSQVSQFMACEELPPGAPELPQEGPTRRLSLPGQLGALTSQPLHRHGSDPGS
row,Structure (SMILES),"hERG current change (%, negative = inhibition) at 10uM [%]"
1,COC(=O)c1c(-c2ccccc2)csc1NC(=O)c1ccco1,1.88
2,O=C(C1CCCO1)N1CCN(S(=O)(=O)c2ccccc2)CC1 (stereo not drawn),13.7
3,CC(C)N1OC2CC1c1nc3ccccc3n1C2 (stereo not drawn),15.2
4,COc1cccc(/C=C/C(=O)c2ccc(C)c([N+](=O)[O-])c2)c1,-3.1
5,CN(C)CCN(C(=O)c1ccc2ccccc2c1)c1nc2c(F)cccc2s1.Cl,-10.2
6,O=C(CCCSc1ccccc1)Nc1nc(-c2ccccn2)cs1,0.382
7,O=C(c1cc2ccccc2c(=O)o1)N1CCCC1,10.7
8,Cc1ccc(C(=O)CSc2nc(N)cc(=O)[nH]2)cc1,2.68
9,COc1ccc(/C=C/C(=O)Nc2ccccc2)cc1OC,-3.62
10,O=C1CN(C(=O)COc2ccc(F)cc2Cl)c2ccccc2N1,-19.5
11,O=C(CNC(=O)c1ccccc1F)NCc1cccnc1,25.1
12,COc1cc2[nH]c3c(=O)n(CCN(C(C)C)C(C)C)cnc3c2cc1OC,-13.3
13,COC(=O)c1ccc(C(=O)N(Cc2ccccc2)c2ccccc2)cc1,5.54
14,Cc1onc(-c2ccccc2Cl)c1C(=O)NCc1ccc2c(c1)cc(C)n2C,7.32
15,CN(C)c1nc(N)nc(CSc2nc3c(c(=O)n(C)c(=O)n3C)n2Cc2ccccc2F)n1,-3.89
16,CCOC(=O)c1ccccc1OCc1cc(/C=N/n2cncn2)ccc1OC,-1.16
17,Cc1ccc(NC(=O)C2CCCN2S(=O)(=O)c2cccc3cccnc23)cc1F (stereo not drawn),-23.4
18,COc1ccc(N(C(=O)c2ccncc2)S(=O)(=O)c2ccccc2)cc1,-17.3
19,COc1ccc(OC)c(CNC(=O)COc2cc(=O)n(C)c3ccccc23)c1,4.7
20,CCCCCN1C(=O)Cn2c(nc3ccccc3c2=O)C1C (stereo not drawn),-20.5
21,CCN(CC)c1ccc(NC(=O)c2cc3c(OC)cccc3[nH]2)cc1,8.54
22,COc1cc2c(cc1OC)CN(CC(=O)Nc1ccccc1C(=O)NCc1ccccc1)CC2,-22.5

row,Structure (SMILES),"hERG current change (%, negative = inhibition) at 10uM [%]"
1,CC(CN1CCN(C)CC1)OC(=O)c1cccc(F)c1.Cl (stereo not drawn),4.26
2,CNC(=S)N1CCN(c2nc(-c3ccc(F)cc3)cs2)CC1,12.8
3,O=C1c2ccccc2S(=O)(=O)c2cc(N3CCN(c4ccccc4)CC3)ccc21,10.8
4,O=C(COC(=O)C1CCC(=O)N1)Nc1ccc(Cl)cc1Cl (stereo not drawn),8.01
5,CCC(NC(=O)NNC(=O)c1ccncc1)(C(F)(F)F)C(F)(F)F,1.98
6,O=C(c1cn(-c2ccccc2)nc1-c1cccnc1)N1CCN(S(=O)(=O)c2cccc(F)c2)CC1,-13.6
7,CCCN(CC(=O)Nc1ccc(F)c(F)c1F)CC(=O)Nc1c(Cl)cccc1Cl,-14.3
8,CC(C)(C)C(=O)NC1(C(F)(F)F)NC(=O)N(Cc2ccccc2)C1=O (stereo not drawn),18.4
9,O=C(CN(Cc1ccc(F)cc1)C(=O)CCC(=O)Nc1ccccn1)NCCc1ccccc1,-15.7
10,CCOc1ccc(C(=O)N2CCC3(CC2)NCCc2[nH]cnc23)cc1,-70.1
11,Cc1cc(C(=O)CN2C(=O)NC(c3ccccc3)(c3ccccc3)C2=O)c(C)n1Cc1ccco1,2.91
12,O=[N+]([O-])c1ccc(/C=N/n2c(COc3ccccc3)n[nH]c2=S)cc1,3.84
13,CCCCC(=O)O,15.2
14,Br.CCCCn1c(=N)n(CC(=O)O)c2ccccc21,22.4
15,C/C(=N\NC(=O)c1ccccc1O)c1c(O)n(C2CCCCC2)c(=O)[nH]c1=O,15.5
16,Cc1ccc(C(=O)N2CCC(n3nccc3NC(=O)C3CCOC3)CC2)cc1 (stereo not drawn),10.7
17,CCN1C(=O)c2ccccc2Sc2ccc(C(=O)NCCC(C)C)cc21,-7.94
18,Cc1nnc(SC/C=C/c2ccccc2)n(N)c1=O,-1.15
19,CN(C)c1cccc2c1c(NC(=O)c1ccc(F)cc1)nn2C,-13.5
20,Oc1cccc(/C=N/Nc2cc(N3CCOCC3)nc(N3CCOCC3)n2)c1,-27.8
21,O=C(O)CC1COc2ccccc2N1S(=O)(=O)c1ccc(Br)cc1 (stereo not drawn),11.1
22,CC(C)CSC1=NSC2=NC(=O)/C(=C\c3ccccc3)C(=N)N12,21.1

row,Structure (SMILES),"hERG current change (%, negative = inhibition) at 10uM [%]"
1,COc1cccc(CN2CCNC(=O)C2CC(=O)NCc2cn3cccc(C)c3n2)c1OC (stereo not drawn),17.1
2,CC(C)NC(=O)c1onc(CSc2ccc(Cl)cc2)c1C(=O)O,8.78
3,Cc1cc(C)cc(OCC(=O)Nc2ccccc2C(=O)NCc2ccco2)c1,0.803
4,Cn1c(=O)c(=O)n(C)c2cc(S(=O)(=O)N3CCCC3C(=O)NCc3ccco3)ccc21 (stereo not drawn),10.4
5,CCOC(=O)c1nn(-c2ccc(C)c(C)c2)cc1O,2.44
6,Cn1c(=S)[nH]c(=O)c2ncc(=O)[nH]c21,6.35
7,Cc1ccc(SCC(=O)NC2CC2)cc1,13.3
8,Cc1ccc(NC(=O)C2CCCN2S(=O)(=O)c2ccc3c(c2)CCC(=O)N3)cc1Cl (stereo not drawn),-37.3
9,Nc1c(C(=O)NCc2ccco2)c2nc3ccccc3nc2n1CCN1CCOCC1,-4.63
10,CCOC(=O)N1CCN(Cc2nc3c(c(=O)n(C)c(=O)n3C)n2Cc2ccccc2C)CC1,-11.3
11,CC(=O)c1ccc(C(=O)N(C)C2CCCN(Cc3ccccc3F)C2)s1 (stereo not drawn),-19.9
12,Cc1nc2ccc(C(=O)OCc3ccccc3Br)cc2nc1C,2.3
13,COc1ccc(CNC(=O)[C@H](Cc2ccccc2)NC(=O)C2CCN(C(=O)[C@H](C)N)CC2)cc1,-2.78
14,COc1ccc(C(C(=O)NC(C)(C)C)N(C(=O)CCC(=O)Nc2cc(C)on2)c2ccccc2F)cc1 (stereo not drawn),11.9
15,C#CCOc1cc(C2C3=C(COC3=O)Nc3cc4c(cc32)OCO4)ccc1OC (stereo not drawn),3.21
16,Cc1c(NC(=O)/C(C#N)=C/c2ccc(-c3cccc(Cl)c3)o2)c(=O)n(-c2ccccc2)n1C,-24.5
17,Cc1cc(CSc2ccccc2)ccc1NC(=O)COc1ccccc1C,6.53
18,Cc1c(O)c(S(=O)c2ccccc2)c(=O)n(-c2ccccc2)c1-c1ccccc1 (stereo not drawn),-4.73
19,CC(=O)c1cccc(NC2c3ccccc3C(=O)N2Cc2ccc3c(c2)OCO3)c1 (stereo not drawn),-11.4
20,Br.CCCCCCCCOC(=O)c1c(CSC(=N)N)n(C)c2cc(Br)c(OC(C)=O)cc12,-22.8
21,O=C(COc1ccccc1)Nc1cccc(-c2nnc(-c3ccccc3)o2)c1,-0.811
22,O=C(N/N=C\c1ccccn1)C1COc2cc3ccccc3cc2O1 (stereo not drawn),-11.2

row,Structure (SMILES),"hERG current change (%, negative = inhibition) at 10uM [%]"
1,COc1ccccc1C(=O)NCCC(=O)N(C)Cc1ccc(C)o1,-5.85
2,N#Cc1cc2ccccc2nc1N,3.52
3,C/C(=N\NC(=O)c1ccccc1)c1c(O)n(Cc2ccccc2)c(=O)[nH]c1=O,-4.51
4,COc1ccc(Cl)cc1NC(=O)CSc1nnc(CN2CCOCC2)n1-c1ccc(Cl)cc1,-46.6
5,OC(CNCC(c1ccc(Cl)cc1Cl)c1c[nH]c2ccccc12)c1ccccc1 (stereo not drawn),13.3
6,COc1cc(SC)ccc1C(=O)N1CCCc2ccccc21,-1.77
7,CC(=O)c1ccc(NC(=O)CC(NCCC2=CCCCC2)C(=O)O)cc1 (stereo not drawn),4.35
8,O=C(c1ccc(Cl)cc1)c1coc2ccc(O)cc12,-10.8
9,Cc1ccc(S(=O)(=O)N2CCN(C(=O)CN3CCOCC3)C2)cc1,1.23
10,O=C(O)C1CC=CCC1C(=O)NCCc1csc(-c2ccccc2)n1 (stereo not drawn),-19
11,COc1ccccc1CCCNC(=O)C1CCC(=O)N(CCc2cccc(F)c2)C1 (stereo not drawn),-19.1
12,CCCCn1c(O)c(C(C)=NCCCN(CC)CC)c(=O)[nH]c1=O,-18.3
13,CCOC(=O)c1sc(NC(=S)NC(=O)c2ccc(OC)cc2)nc1C,20.4
14,Cc1ccc(-c2nnn(CC(=O)N(Cc3ccccc3F)C(C(=O)NC3CCCC3)c3ccncc3)n2)o1 (stereo not drawn),-15.4
15,COc1ccc(N(CC(=O)NCCSCc2ccccc2Cl)S(C)(=O)=O)cc1Cl,-0.89
16,COC(=O)C(C(=O)OC)C(C(C)C)C(C(=O)OC)C(=O)OC,-7.51
17,Cc1cccc(NC(=O)c2ccc(Cl)c(NC(=O)c3ccncc3)c2)c1C,-30.4
18,Cc1cccc2cc(CN(CC3CCCO3)C(=O)c3cccnc3)c3nnnn3c12 (stereo not drawn),-5.82
19,O=C(COC(=O)c1cccc(O)c1)c1ccccc1,-0.561
20,CSc1ccccc1OCc1cc(C(=O)N(C)CC2COCCO2)no1 (stereo not drawn),3.36
21,COC(=O)c1ccc(OCC(=O)c2cccc(OC)c2)cc1,7.76
